Measured values taken from paper PMC4336329 (PLoS ONE, 2015).
The whole screen tested about 310,000 compounds, of which about 14,000 (4.5%) showed an effect of 50% or more. The effect is printed as a negative number. The list shows a part of the results.

What follows are compounds tested against human ether-à-go-go-related gene (hERG) potassium channel (human, UniProt Q12809) (assay: primary screen, population patch clamp on CHO cells stably expressing hERG).
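Further: peak tail current of the secondary pulse compared with the same well before compound.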

Sequence of human ether-à-go-go-related gene (hERG) potassium channel (Q12809 whole entry, looked up): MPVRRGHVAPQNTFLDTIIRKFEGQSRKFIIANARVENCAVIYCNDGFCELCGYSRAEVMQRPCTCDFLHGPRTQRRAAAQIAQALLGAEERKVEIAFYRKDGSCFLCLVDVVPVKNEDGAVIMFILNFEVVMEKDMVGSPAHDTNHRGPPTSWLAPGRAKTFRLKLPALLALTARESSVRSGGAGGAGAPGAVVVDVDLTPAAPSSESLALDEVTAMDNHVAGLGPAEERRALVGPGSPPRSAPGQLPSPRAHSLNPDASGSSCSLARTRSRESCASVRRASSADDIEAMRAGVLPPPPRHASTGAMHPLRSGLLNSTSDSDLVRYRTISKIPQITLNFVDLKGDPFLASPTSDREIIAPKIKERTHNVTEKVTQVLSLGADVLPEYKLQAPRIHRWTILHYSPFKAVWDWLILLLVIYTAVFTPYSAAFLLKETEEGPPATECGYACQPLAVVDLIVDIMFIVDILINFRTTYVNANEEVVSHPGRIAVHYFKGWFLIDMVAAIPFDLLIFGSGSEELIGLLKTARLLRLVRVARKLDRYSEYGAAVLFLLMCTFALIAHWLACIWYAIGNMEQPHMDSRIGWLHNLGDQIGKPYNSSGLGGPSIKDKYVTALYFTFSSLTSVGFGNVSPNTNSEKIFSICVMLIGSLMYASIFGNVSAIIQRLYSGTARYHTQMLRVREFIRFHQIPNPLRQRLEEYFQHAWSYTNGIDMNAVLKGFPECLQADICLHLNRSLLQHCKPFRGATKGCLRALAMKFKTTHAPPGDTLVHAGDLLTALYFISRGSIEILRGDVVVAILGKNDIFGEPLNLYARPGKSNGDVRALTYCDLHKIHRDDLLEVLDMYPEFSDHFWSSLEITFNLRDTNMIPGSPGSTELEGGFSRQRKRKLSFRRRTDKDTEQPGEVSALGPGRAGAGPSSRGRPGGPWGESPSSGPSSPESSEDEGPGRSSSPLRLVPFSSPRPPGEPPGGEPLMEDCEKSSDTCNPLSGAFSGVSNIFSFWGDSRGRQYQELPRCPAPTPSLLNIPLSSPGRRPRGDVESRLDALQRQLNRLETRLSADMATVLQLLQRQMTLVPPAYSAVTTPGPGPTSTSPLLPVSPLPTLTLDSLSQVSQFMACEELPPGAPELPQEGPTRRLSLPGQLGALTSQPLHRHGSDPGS

| Structure (SMILES) | hERG current change (%, negative = inhibition) at 10uM [%] |
| --- | --- |
| COC(=O)CSc1nc(N)c(C#N)c(C(C)C)c1C#N | -8.45 |
| CC(C)C(NC(=O)CNC(=O)OC(C)(C)C)C(=O)NCc1ccc(Cl)cc1 (centres unmarked) | 1.18 |
| Cc1cccc(S(=O)(=O)Nc2cccc(-c3cn4ccsc4n3)c2)c1 | -4.76 |
| CCOc1nc(Nc2ccccc2)nc(OCC)n1 | -21.7 |
| Cc1cc(C)nc(Nc2ccc(F)cc2)n1 | 8.78 |
| Fc1ccc(Nc2ccc(-c3ccc(F)cc3)nn2)cc1 | -2.84 |
| CC1(C)Cc2cccc(OCC(=O)Nc3ccccc3C(F)(F)F)c2O1 | -15.5 |
| Cc1ccc(/C=N/NS(=O)(=O)c2ccc([N+](=O)[O-])cc2)o1 | 26.4 |
| C/C(N)=C(/C#N)C(=O)COc1ccc(Cl)cc1Cl | -23.3 |
| COc1ccc(-c2cn(-c3ccc(C)c(C)c3)c(=S)[nH]2)cc1OC | 7.67 |
| COc1cccc(-c2nc(C#N)c(N3CCN(C(=O)c4ccco4)CC3)o2)c1 | -35.1 |
| O=C(c1ccc(NS(=O)(=O)c2cccc3cccnc23)cc1)N1CCCCC1 | 12 |
| CCOC(=O)N1CCN(CC(O)COCCC23CC4CC(CC(C4)C2)C3)CC1.Cl (centres unmarked) | -35 |
| CCSC1(SCC)N=C(N)C2(C#N)C(c3ccc(F)cc3)C12C#N (centres unmarked) | -10.8 |
| COc1ccc(NC(=O)c2ccc(NC3CC(=O)N(c4ccc(C)cc4C)C3=O)cc2)cc1 (centres unmarked) | 1.91 |
| CCc1ccc(NC(=O)CSC2=C(C#N)C(c3ccc4c(c3)OCO4)CC(=O)N2)cc1 (centres unmarked) | 8.18 |
| COc1ccccc1Nc1nc(NCc2ccco2)c2ccccc2n1.Cl | -20.3 |
| CCOc1ccc2[nH]c(=O)c(C(c3nnnn3C3CCCCC3)N3CCN(CC)CC3)cc2c1 (centres unmarked) | -40.3 |
| Cc1cc(OC(C)C)c2c(-c3ccccc3)cc(=O)oc2c1 | 16.2 |
| CC(Oc1cccc(Cl)c1)C(=O)Nc1ccc(S(=O)(=O)N(C)C2CCN(C)CC2)cc1 (centres unmarked) | -24.9 |
| CCOC(=O)Nc1ccc2c(c1)N(C(=O)N1CCN(C)CC1)c1ccccc1S2.Cl | -46 |
| NNC(=O)COc1ccc(C2SCCS2)cc1 | 8.44 |

| Structure (SMILES) | hERG current change (%, negative = inhibition) at 10uM [%] |
| --- | --- |
| Cc1ccc(CSc2nnc(C)c(=O)[nH]2)cc1 | 10.9 |
| CC(NC(=O)CC(c1ccccc1)c1cc(Cl)ccc1O)c1ccccc1 (centres unmarked) | -14.7 |
| OC(COc1ccccc1)Cn1c2ccccc2c2ccccc21 (centres unmarked) | 6 |
| Cc1ccc(N2C(=O)CC(Sc3ccccc3C(=O)O)C2=O)cc1C (centres unmarked) | 19.3 |
| COc1ccc(S(=O)(=O)Nc2ccc(S(=O)(=O)Nc3ccc(F)cc3)cc2)cc1C | -16.9 |
| COc1ccc(OCc2cnc(Cl)s2)cc1 | 8.9 |
| CC(=O)Nc1ccc(S(=O)(=O)/N=C2\C(=O)c3ccccc3C([O-])=C2n2cc[n+](-c3ccccn3)c2)cc1 | 2.09 |
| O=C(Cn1cnc2c(nnn2Cc2ccccc2F)c1=O)NCC1CCCO1 (centres unmarked) | -3.88 |
| CSc1nc(Oc2ccc(F)cc2)c2ccccc2n1 | 11.2 |
| O=C(c1ccc(S(=O)(=O)NCc2ccco2)cc1)N1CCN(Cc2ccccc2)CC1 | 2.86 |
| CCOC(=O)N1CCC(NC(=O)C2CCN(C(=O)N3CC(C)Oc4ccc(C)cc43)CC2)CC1 (centres unmarked) | -21.4 |
| Cc1ccc(NC(=O)COC(=O)CCC(=O)c2cccs2)c(C)c1 | 7.04 |
| COCCNC(=O)CSc1nnc(-c2ccc(C)cc2)c(-c2ccc(C)cc2)n1 | -19.2 |
| COc1cccc(NC(=O)C2CCOC2=O)c1 (centres unmarked) | 26 |
| O=C(NCc1cccs1)c1cc2ccccc2o1 | -4.44 |
| CCCCn1c(N)c(N(Cc2ccccc2OC)C(=O)c2cc(CC)c(C)s2)c(=O)[nH]c1=O | 4.37 |
| Cc1cc(C(=O)COc2cc(F)ccc2[N+](=O)[O-])c(C)n1C1CC1 | -3.02 |
| O=C(O)CCCNC(=O)/C(=C\c1ccccc1F)NC(=O)c1ccccc1 | 13.4 |
| COc1ccc(OCC(O)CNC(=O)c2sccc2Cl)cc1 (centres unmarked) | -6.39 |
| CSC1=C(C#N)C2(CCCC2)C(C#N)=C(N)N1 | -5.89 |
| COc1ccc(CCNC(=O)CN(c2ccc(OC)c(OC)c2)S(C)(=O)=O)cc1OC | 5.54 |
| COc1ccc(OC)c(C2/C(=C(\O)c3ccc4c(c3)OCCO4)C(=O)C(=O)N2CC2CCCO2)c1 (centres unmarked) | 1.77 |

| Structure (SMILES) | hERG current change (%, negative = inhibition) at 10uM [%] |
| --- | --- |
| O=C(c1ccc(Cl)c(S(=O)(=O)N2CCCCCC2)c1)N1CCCCC1 | -20.7 |
| O=C(NC(=S)Nc1ccc(S(=O)(=O)Nc2nccs2)cc1)c1ccc(Br)o1 | 20.9 |
| COc1ccc(-c2csc(NC(=O)c3nc(-c4ccccc4)oc3C)n2)cc1 | 16.3 |
| CC1CCC2(CC1)NC(=O)N(CC(=O)NC(C)c1ccc(F)c(F)c1)C2=O (centres unmarked) | -15.9 |
| Cc1cc(=O)[nH]c(SCC(=O)Nc2ccnc3ccccc23)n1 | 12.2 |
| CCCCN=CC1=C(O)C(C(=O)OC)C(C)(C)CC1=O (centres unmarked) | 10.1 |
| C=C1CCN([C@@H](C)C(=O)NCCCCCC)S(=O)(=O)c2ccccc21 | -35.6 |
| CCOC(=O)c1cc2cc(OC)ccc2[nH]1 | -4.86 |
| Cc1oc(-c2ccccc2Cl)nc1CSCC(=O)O | 1.18 |
| COc1ccc(C(=O)NC(=S)Nc2nc(C)c(C(=O)N(C)C)s2)cc1 | 10.3 |
| CC(=O)C1=C(c2ccccc2)OC(N)=C(C#N)C1c1ccc(O)cc1 (centres unmarked) | 7.26 |
| CN(C)c1ncnc2sc(-c3ccccc3)cc12 | -23.6 |
| COc1ccc2c(c1[N+](=O)[O-])CCC/C2=N/OC(=O)c1cccc2ccccc12 | 21.2 |
| CN(C)CC(=O)Nc1ccc2cn[nH]c2c1 | 9.99 |
| O=C(Cc1coc(-c2ccc(F)cc2)n1)N1CCOCC1 | -0.74 |
| C#CCOCCOCCOCCNc1nc(N2CCN(C(=O)C(Cc3ccc(O)cc3)n3cc(C(N)CC(C)C)nn3)CC2)nc(N2CCN(C(=O)C(Cc3ccc(O)cc3)n3cc(C(N)C(C)CC)nn3)CC2)n1.Cl (centres unmarked) | 10.2 |
| CC(C)CCN1C(=O)CC(NNC(=O)c2ccc(S(=O)(=O)N3CCCC3)cc2)C1=O (centres unmarked) | -9.87 |
| CCN(CC)c1nc(N2CCN(C)CC2)nc2ccccc12.Cl | -44.3 |
| Clc1ccc(-n2nnnc2-c2ccccc2)cc1Cl | -7.94 |
| O=Cc1c(NCc2ccccc2Cl)c2ccccc2[nH]c1=O | -1.39 |
| CCOc1cc(/C=C2/C(=N)N3OC(C)=CC3=NC2=O)ccc1OC | 15.3 |
| CNC(=S)NC1CC2CCCC(C1)N2Cc1ccco1 (centres unmarked) | 6.44 |

| Structure (SMILES) | hERG current change (%, negative = inhibition) at 10uM [%] |
| --- | --- |
| Cc1nc2ncnn2c(C)c1CCC(=O)N1CCN(c2ccccn2)CC1 | -33.3 |
| O=C(c1ccc(Cl)c(S(=O)(=O)N2CCOCC2)c1)N1CCCCC1 | 7.04 |
| CCc1ccc2c(c1)[C@]1(C(=O)N2)[C@@H]2C(=O)N(Cc3ccccc3)C(=O)[C@@H]2[C@@H]2CCCN21 | 9.89 |
| O=C1NC2(CCCCCC2)C(=O)N1Cc1ccc(Cl)cc1Cl | 4.76 |
| CC(C(=O)NCc1ccco1)n1ccc2cc(S(=O)(=O)N3CCCCC3)ccc21 (centres unmarked) | -1.47 |
| Cc1cccc(NC(=O)C2C(c3ccccc3)C2(Cl)Cl)c1C (centres unmarked) | 12.8 |
| Cc1cc(C)nc(/N=C(/NC(=O)c2ccccc2)Nc2ccccc2)n1 | 3.93 |
| CCOC(=O)C1(CC2CC2)CCN(Cc2cc(Cl)c(O)c(OC)c2)CC1 | -57.1 |
| COc1ccc(OC)c(C2NC(=S)NC(C)=C2C(=O)Nc2ccccn2)c1 (centres unmarked) | 0.661 |
| O=c1cc(CN2CCN(C/C=C/c3ccccc3)CC2)c2cc(O)c(-c3ccccc3)cc2o1 | 11.6 |
| CCOc1ccc(CCNC(=O)C(C)N2C(=O)CC(C)(C)Sc3ccccc32)cc1 (centres unmarked) | -6.26 |
| C(C#CCCCCCCCCC[n+]1ccccc1)#CCCCCCCCCC[n+]1ccccc1.Cc1ccc(S(=O)(=O)O)cc1 | -24.1 |
| Cc1[nH]c2c(ccc3ccccc32)c1C1C(CCN)C1(C)C (centres unmarked) | 0.108 |
| COc1ccc(N=C2SC(CC(=O)Nc3ccccc3)C(=O)N2CCc2ccccn2)cc1 (centres unmarked) | -32.6 |
| COc1ccc(OC)c(Nc2ncnc3sc(-c4ccccc4)cc23)c1 | 13.8 |
| Cc1nn(C)c(C)c1S(=O)(=O)N(CC(=O)N1CCc2ccccc21)c1ccc(C(C)C)cc1 | -0.0857 |
| CCn1c(Cc2ccc(OC)cc2)nnc1SCC(=O)Nc1cccc(C(=O)OC)c1 | -33.7 |
| Cc1cc(C(=O)N2CCCC(CO)(Cc3ccc(F)cc3)C2)c(C)o1 (centres unmarked) | -6.38 |
| CC1CN(C(=O)C(C)Sc2nc3ccccc3s2)CC(C)O1 (centres unmarked) | 1.01 |
| CC(C)Cc1nc2oc3c(NCC4CCCO4)ncnc3c2c2c1CCC2 (centres unmarked) | -35.8 |
